# From PubChem BioAssay AID686978 (National Center for Advancing Translational Sciences (NCATS), 2013)
# Several values for one entry are separate records, joined by “and”; a condition that tells them apart may be missing. Equal entries are not always repeated. In all, about 420,000 compounds went through this assay and about 64,000 (15%) were called active. The shares of active, inactive and inconclusive entries below differ from those in the screen. The call rests on the fitted dose curve; in most records, active means well fitted inhibition curve with a large enough effect; inconclusive means small, poorly fitted or top-dose-only effect; inactive means flat fitted curve, though single readings scatter. No potency is given beside an inconclusive call; the fits are too rough.
# Experiment: qHTS for Inhibitors of human tyrosyl-DNA phosphodiesterase 1 (TDP1): qHTS in cells in absence of CPT; further: nearly all actives have a fitted effect of over 55% in size
# Conditions: DT40 Tdp1-/- hTDP1 cells, no CPT, ATP luminescence, 48 h; activity change, negative = growth inhibition: at 46.2 µM (top of the series) unless noted
# Summary of the method: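 DT40 Tdp1-/-;hTDP1 cells, no CPT (DMSO vehicle only), 400 cells/well; compounds pin-transferred; ≥48 hr, 37 °C; CellTiter-Glo 30 min RT dark, luminescence read.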
# On the % scale 0 is the no-effect control and ±100 the full control effect; potency means the concentration at half of the fitted maximal effect; tags describe the fitted curve by direction and shape.
SMILES,Potency,"activity change, negative = growth inhibition"
COc1ccccc1C(O)c1ncc(-c2cccc3ccccc23)[nH]1 (centres undefined),"inconclusive [inhibitor, partial curve]",–
CN(C)S(=O)(=O)c1cccc(NC(=O)c2cccc(S(=O)(=O)N3CCCCC3)c2)c1,"inconclusive [inhibitor, single point]",–
COc1ccc(NCC(=O)NN=C2CCS(=O)(=O)c3ccc(F)cc32)cc1,–,inactive: -19.6%
Cc1cc(C(=O)OCC(=O)Nc2cc(S(=O)(=O)N3CCOCC3)ccc2Cl)c(C)o1,–,inactive: -23.6%
c1ccc(CNc2ncnc3sccc23)cc1,active: 7.31 µM,–
O=C1NC[C@H](CCCCN2C[C@H](Cc3ccccc3)N(CC3CCCCC3)C(=O)C2=O)N(CCc2ccccc2)C1=O,"inconclusive [inhibitor, partial curve]",–
COc1ccc(CCNC(=O)c2cc(S(=O)(=O)N3CCc4ccccc43)ccc2F)cc1OC,active: 6.51 µM,–
CCCCCC1CCC(C(=O)NNC(=S)NCC)CC1 (centres undefined),"inconclusive [inhibitor, single point]",–
COC1=C(Nc2ccc(OC)cc2)C(=O)C(OC)=C(Nc2ccc(OC)cc2)C1=O,–,inactive: -12.3%
O=c1[nH]c2ccccc2nc1-c1c[nH]c2ccccc12,–,inactive: -0.286%
Cc1ccc(S(=O)(=O)N2CCCC(C)C2)cc1 (centres undefined),"inconclusive [inhibitor, single point]",–
CCc1cc2c(=O)c(-c3nc4ccccc4n3C)c(C)oc2c(CN2CCN(CCO)CC2)c1O,"inconclusive [inhibitor, partial curve]",–
COc1ccc(CCN2C(=O)C(Oc3ccccc3C)C2c2ccc3c(c2)OCO3)cc1 (centres undefined),active: 16.4 µM,–
CCCCN(CCCC)CCNC(=O)c1cn(CC)c2ccc(S(=O)(=O)N3CCc4ccccc4C3)cc2c1=O,active: 18.4 µM and active: 23.1 µM,–
CCOC(=O)CSc1nc2c([nH]c3ccccc32)c(=O)n1-c1ccc(OC)cc1,"inconclusive [inhibitor, partial curve]",–
Cc1oc(-c2cccc(Cl)c2)nc1CN1CCC(C(=O)NCCCN2CCN(c3ccccc3F)CC2)CC1,active: 3.66 µM,–
CN(c1ccccc1)S(=O)(=O)c1ccc(C(=O)Nc2nnc(-c3ccc(F)cc3)o2)cc1,active: 6.51 µM,–
COc1cccc(CN(C)C(=O)c2cc(COc3ccc4ncccc4c3)on2)c1,active: 2.91 µM,–
COC(=O)C1=C2SC(C)C(=O)N2C(N)=C(C#N)C1c1ccc(OC)c(OC)c1 (centres undefined),–,inactive: -2.53%
COc1ccccc1-c1cc(-c2ccccc2)nc(=O)[nH]1,–,inactive: -3.23%

SMILES,Potency,"activity change, negative = growth inhibition"
N#CCc1c(C#N)c(N)nc(N2CCN(S(=O)(=O)c3ccccc3)CC2)c1C#N,active: 16.4 µM,–
C=C(C)c1cccc(C(C)(C)NC(=O)NCc2cccnc2)c1,–,inactive: -16.3%
CC(C)(C)OC(=O)Nc1ccccc1-n1nnnc1C(C(=O)c1ccc(F)cc1)N1CCOCC1 (centres undefined),–,inactive: -24.6%
Cc1cccc(NC(=O)CCC(=O)OCC(=O)c2ccc(Oc3ccc([N+](=O)[O-])cc3)cc2)c1,"inconclusive [inhibitor, partial curve, poor fit]",–
CCOc1ccccc1N1CCN(C(=O)c2cc3cc(OC)ccc3[nH]2)CC1,"inconclusive [inhibitor, partial curve]",–
C=CCn1c(C(CCCC)CC(O)COCC(C)C)n[nH]c1=S (centres undefined),"inconclusive [inhibitor, single point]",–
COc1ccc(N(Cc2cccs2)C(=O)c2ccc(Br)o2)cc1,active: 18.4 µM,–
CCOC(=O)[C@]12CCC=C1N(Cc1cccc3ccccc13)C(=O)[C@H](CC(=O)NCCc1ccccc1OC)C2,active: 18.4 µM,–
CCC(Oc1ccccc1)C(=O)Nc1ccc(S(=O)(=O)NCC2CCCO2)cc1 (centres undefined),"inconclusive [inhibitor, partial curve]",–
Cc1ccc(Cl)cc1NC(=O)c1ccccn1,–,inactive: -1.57%
OC(COC(c1ccc(Cl)cc1)c1ccc(Cl)cc1)CN1CCN(c2ccccn2)CC1 (centres undefined),active: 16.4 µM,–
Cc1ccc(NS(=O)(=O)c2ccc3c(c2)n(C)c(=O)n3C)cc1,–,inactive: -20.6%
CCOc1ccc(NC(=S)Nc2ccc(Br)cc2Cl)cc1,"inconclusive [inhibitor, partial curve, poor fit]",–
COc1ccccc1CNC(=O)C1CCN(S(=O)(=O)c2ccc3c(c2)C(C)(C)C(=O)N3C)CC1,"inconclusive [inhibitor, single point]",–
COc1ccc(-n2cc(C(=O)c3cc(Cl)ccc3O)cc(C#N)c2=O)cc1,"inconclusive [inhibitor, single point]",–
COc1ccc(C/C(N)=N/n2cnnc2)cc1Cl,–,inactive: -13.8%
CCOc1ccc(S(=O)(=O)N2CCC(C(=O)OCc3ccc(OC)cc3)CC2)cc1,–,inactive: -10.8%
Cc1ccc(C(=O)NNC(=O)c2ccccc2)cc1S(=O)(=O)N1CCCCC1,–,inactive: -29%
Cc1cc(C)c2[nH]c(=O)c(C(c3nnnn3CC3CCCO3)N3CCCC(C)C3)cc2c1 (centres undefined),"inconclusive [inhibitor, single point]",–
